# Reference: PubChem BioAssay (Tox21)
# Several values for one entry are separate records, joined by “and”; a condition that tells them apart may be missing. Identical values can stand only once. Inconclusive means that the source gave no clear call. Such entries were picked first, then a sample of the others. A potency beside an inconclusive call is a rough fit, not a confirmed value. Some compounds were tested as several samples or in several runs, with calls that do not always agree. Activity calls are given as the source filed them. The call rests on the fitted dose curve; in most records, active means well fitted curve in the direction sought with a large enough effect in the repeat runs; inconclusive means weak or mixed curves; inactive means no such curve, though single readings can be large; an effect the other way counts as inactive or inconclusive.
# Key:
# [1] = target: Cytochrome P450 2C19 (Homo sapiens) (UniProt P33261); test: Cytochrome P450 Family 2 Subfamily C Member 19 (CYP2C19) small molecule antagonists: luciferase reporter qHTS assay (AID 1671197); settings: P450-Glo CYP2C19 enzyme, luciferin luminescence, 1 h; series mostly up to 115 µM; further: nearly all actives have a fitted effect of over 65% in size
# Sequence of UniProt P33261 (P33261 whole entry, looked up): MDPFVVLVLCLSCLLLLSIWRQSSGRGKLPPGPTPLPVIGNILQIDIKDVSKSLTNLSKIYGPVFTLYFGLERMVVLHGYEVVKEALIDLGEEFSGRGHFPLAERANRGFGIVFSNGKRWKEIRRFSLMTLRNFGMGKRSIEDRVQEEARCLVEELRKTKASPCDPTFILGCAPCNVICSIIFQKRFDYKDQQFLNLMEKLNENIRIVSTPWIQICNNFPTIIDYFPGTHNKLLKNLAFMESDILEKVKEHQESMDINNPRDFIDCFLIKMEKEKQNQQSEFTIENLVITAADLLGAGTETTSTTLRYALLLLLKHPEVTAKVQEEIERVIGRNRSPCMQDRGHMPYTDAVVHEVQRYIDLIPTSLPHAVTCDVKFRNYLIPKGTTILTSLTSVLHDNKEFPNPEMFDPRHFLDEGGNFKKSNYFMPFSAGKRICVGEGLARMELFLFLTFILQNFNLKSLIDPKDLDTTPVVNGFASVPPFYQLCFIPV
# Method in brief: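 Luminescent readout of CYP2C19 activity: luciferin product detected 20 min after adding detection reagent. Before that, compound and enzyme-substrate mix preincubated 10 min at room temperature; NADPH-regenerating system started a 1 h, 37C reaction. Ketoconazole as positive control.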
# [2] = target: Cytochrome P450 2C9 (Homo sapiens) (UniProt P11712); test: Cytochrome P450 Family 2 Subfamily C Member 9 (CYP2C9) small molecule antagonists: luciferase reporter qHTS assay (AID 1671198); settings: P450-Glo CYP2C9 enzyme assay, luciferin luminescence; series mostly up to 115 µM; further: nearly all actives have a fitted effect of over 50% in size
# Sequence of UniProt P11712 (P11712 whole entry, looked up): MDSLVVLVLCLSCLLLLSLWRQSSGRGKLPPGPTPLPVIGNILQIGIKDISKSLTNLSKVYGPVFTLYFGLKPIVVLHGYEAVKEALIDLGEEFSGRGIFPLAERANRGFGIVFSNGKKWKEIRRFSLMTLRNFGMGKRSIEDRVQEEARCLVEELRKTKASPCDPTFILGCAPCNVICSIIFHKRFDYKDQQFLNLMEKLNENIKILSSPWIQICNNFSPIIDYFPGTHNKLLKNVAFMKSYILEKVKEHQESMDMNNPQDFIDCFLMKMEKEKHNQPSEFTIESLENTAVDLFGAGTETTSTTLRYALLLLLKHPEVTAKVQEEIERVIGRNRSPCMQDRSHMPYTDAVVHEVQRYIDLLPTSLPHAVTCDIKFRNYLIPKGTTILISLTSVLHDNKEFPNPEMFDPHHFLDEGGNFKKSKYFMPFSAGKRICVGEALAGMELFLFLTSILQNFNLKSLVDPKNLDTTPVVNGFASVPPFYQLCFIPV
# Method in brief: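 CYP2C9 activity was measured with a P450-Glo proluciferin substrate. Enzyme–substrate mix was held with compound for 10 min at room temperature, then NADPH regeneration solution was added for 1 h at 37C. Luciferin product was read as luminescence.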
# [3] = target: Cytochrome P450 2D6 (Homo sapiens) (UniProt P10635); test: Cytochrome P450 Family 2 Subfamily D Member 6 (CYP2D6) small molecule antagonists: luciferase reporter qHTS assay (AID 1671196); settings: P450-Glo CYP2D6 enzyme assay, luciferin luminescence, 1 h; series mostly up to 115 µM; further: nearly all actives have a fitted effect of over 50% in size
# Sequence of UniProt P10635 (P10635 whole entry, looked up): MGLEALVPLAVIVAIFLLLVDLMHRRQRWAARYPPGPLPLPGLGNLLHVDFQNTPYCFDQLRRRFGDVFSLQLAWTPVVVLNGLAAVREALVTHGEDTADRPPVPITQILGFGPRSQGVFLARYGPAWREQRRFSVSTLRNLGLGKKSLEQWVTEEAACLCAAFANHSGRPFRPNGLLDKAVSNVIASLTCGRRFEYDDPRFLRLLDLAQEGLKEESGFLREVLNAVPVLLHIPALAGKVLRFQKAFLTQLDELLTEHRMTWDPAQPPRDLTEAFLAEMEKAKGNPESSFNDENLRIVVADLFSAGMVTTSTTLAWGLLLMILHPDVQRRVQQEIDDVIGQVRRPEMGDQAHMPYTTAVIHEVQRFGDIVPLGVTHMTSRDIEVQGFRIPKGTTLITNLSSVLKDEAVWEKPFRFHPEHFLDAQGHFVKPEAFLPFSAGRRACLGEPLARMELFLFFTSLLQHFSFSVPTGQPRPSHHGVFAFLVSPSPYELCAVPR
# Method in brief: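 CYP2D6 enzyme–substrate mix was held with compound for 10 min at room temperature, then NADPH regeneration solution was added and the reaction ran 1 h at room temperature. Luciferin product was detected by luminescence after 20 min with detection reagent.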
# [4] = target: Cytochrome P450 3A4 (Homo sapiens) (UniProt P08684); test: Cytochrome P450 Family 3 Subfamily A Member 4 (CYP3A4) small molecule antagonists: luciferase reporter qHTS assay (AID 1671201); settings: P450-Glo CYP3A4 enzyme, luciferin luminescence, 1 h; series mostly up to 115 µM; further: nearly all actives have a fitted effect of over 50% in size
# Sequence of UniProt P08684 (P08684 whole entry, looked up): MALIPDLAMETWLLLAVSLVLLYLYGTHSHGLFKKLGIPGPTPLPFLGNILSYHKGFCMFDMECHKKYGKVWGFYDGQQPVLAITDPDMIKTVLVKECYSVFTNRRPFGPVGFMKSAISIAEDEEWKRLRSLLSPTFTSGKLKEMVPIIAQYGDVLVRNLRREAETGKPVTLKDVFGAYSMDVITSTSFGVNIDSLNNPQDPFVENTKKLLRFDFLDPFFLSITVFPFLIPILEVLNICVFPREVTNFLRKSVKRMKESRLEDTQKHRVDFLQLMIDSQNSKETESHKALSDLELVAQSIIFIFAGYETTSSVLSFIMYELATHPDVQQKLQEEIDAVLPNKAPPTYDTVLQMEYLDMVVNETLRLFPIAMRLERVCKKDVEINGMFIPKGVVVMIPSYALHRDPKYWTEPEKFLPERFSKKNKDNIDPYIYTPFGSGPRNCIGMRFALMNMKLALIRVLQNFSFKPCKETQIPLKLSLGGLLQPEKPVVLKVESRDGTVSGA
# Method in brief: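 Room-temperature assay throughout: 10 min compound–enzyme/substrate preincubation, 1 h reaction after NADPH regeneration solution, 20 min detection. Luciferin formed from proluciferin substrate is quantified by luminescence.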
# [5] = target: Cytochrome P450 1A2 (Homo sapiens) (UniProt P05177); test: Cytochrome P450 Family 1 Subfamily A Member 2 (CYP1A2) small molecule antagonists: luciferase reporter qHTS assay (AID 1671199); settings: P450-Glo CYP1A2 enzyme, luciferin luminescence, 1 h; series mostly up to 115 µM; further: nearly all actives have a fitted effect of over 50% in size
# Sequence of UniProt P05177 (P05177 whole entry, looked up): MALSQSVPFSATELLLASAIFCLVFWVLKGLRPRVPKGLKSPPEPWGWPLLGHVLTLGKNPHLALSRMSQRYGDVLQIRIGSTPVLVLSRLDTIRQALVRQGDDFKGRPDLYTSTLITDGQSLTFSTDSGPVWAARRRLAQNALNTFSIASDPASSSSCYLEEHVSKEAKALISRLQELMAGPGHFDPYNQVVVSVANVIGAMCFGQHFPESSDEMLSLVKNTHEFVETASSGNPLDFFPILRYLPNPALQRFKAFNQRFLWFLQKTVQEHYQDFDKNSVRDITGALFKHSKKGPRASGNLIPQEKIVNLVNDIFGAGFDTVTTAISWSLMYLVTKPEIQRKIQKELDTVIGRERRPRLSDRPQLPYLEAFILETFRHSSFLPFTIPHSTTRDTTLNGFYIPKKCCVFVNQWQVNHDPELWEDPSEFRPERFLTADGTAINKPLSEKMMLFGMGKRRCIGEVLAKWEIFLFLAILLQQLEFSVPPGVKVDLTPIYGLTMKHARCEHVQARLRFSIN
# Method in brief: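 Human CYP1A2 activity measured with a P450-Glo proluciferin substrate; compounds in DMSO preincubated 10 min at room temperature with enzyme-substrate mix, then NADPH regeneration system added for 1 h. Luciferin detection reagent, 20 min, luminescence read.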
# [6] = target: Voltage-gated inwardly rectifying potassium channel KCNH2 (Homo sapiens) (UniProt Q12809); test: Human Ether-a-go-go-Related Gene (hERG) channel small molecule antagonists: fluorescence cell-based qHTS assay (AID 1671200); settings: hERG-U2OS cells, FluxOR thallium flux fluorescence; series mostly up to 76.8 µM; further: nearly all actives have a fitted effect of over 50% in size;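 on activity change, negative = inhibition: hERG-expressing U2OS cells given a thallium stimulus after FluxOR II dye loading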
# Sequence of UniProt Q12809 (Q12809 whole entry, looked up): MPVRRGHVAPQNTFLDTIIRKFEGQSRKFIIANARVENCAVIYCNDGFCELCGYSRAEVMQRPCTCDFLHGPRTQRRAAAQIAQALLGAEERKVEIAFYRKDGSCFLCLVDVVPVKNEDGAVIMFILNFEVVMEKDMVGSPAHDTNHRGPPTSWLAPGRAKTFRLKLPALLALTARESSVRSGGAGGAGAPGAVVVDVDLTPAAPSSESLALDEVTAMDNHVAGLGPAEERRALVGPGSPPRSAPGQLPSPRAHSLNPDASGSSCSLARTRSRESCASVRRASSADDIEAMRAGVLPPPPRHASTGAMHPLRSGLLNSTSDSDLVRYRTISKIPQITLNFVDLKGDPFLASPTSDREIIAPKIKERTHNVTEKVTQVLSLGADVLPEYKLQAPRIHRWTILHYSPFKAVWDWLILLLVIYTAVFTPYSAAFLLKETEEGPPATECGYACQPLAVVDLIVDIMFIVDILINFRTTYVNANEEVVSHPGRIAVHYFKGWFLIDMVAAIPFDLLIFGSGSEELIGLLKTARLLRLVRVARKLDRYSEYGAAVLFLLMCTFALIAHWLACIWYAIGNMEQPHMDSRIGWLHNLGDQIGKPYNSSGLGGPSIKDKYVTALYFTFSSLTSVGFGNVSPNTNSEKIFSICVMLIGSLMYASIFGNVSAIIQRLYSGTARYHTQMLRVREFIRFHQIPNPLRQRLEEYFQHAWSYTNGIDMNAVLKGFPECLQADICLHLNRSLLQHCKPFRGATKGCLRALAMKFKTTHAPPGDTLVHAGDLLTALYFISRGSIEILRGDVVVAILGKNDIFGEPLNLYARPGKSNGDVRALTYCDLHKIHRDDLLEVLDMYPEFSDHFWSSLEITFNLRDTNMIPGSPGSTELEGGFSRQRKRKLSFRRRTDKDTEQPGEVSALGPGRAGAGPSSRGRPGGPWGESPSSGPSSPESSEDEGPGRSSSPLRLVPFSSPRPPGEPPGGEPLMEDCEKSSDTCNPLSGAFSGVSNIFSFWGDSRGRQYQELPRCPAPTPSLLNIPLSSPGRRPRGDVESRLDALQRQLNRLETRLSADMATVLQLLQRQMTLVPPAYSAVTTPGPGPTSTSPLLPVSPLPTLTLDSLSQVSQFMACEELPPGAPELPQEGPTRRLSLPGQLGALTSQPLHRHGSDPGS
# Method in brief: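 Cell line hERG-U2OS; dye FluxOR II, 1 h RT dark; Tl+ stimulus; ex 480/em 540 nm, read each second for 2 min.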
# On the % scale 0 is the no-effect control and ±100 the full control effect; potency means the concentration at half of the fitted maximal effect; tags describe the fitted curve by direction and shape.
compound,measurement,setting,value
CCCCCCCCCCCCO,Potency,[1],"inconclusive: 90.2 µM [inhibitor, single point]"
CCC(C)CCCC(C)(C)O (stereo not drawn),Potency,[1],inactive
same,Potency,[2],"inconclusive: 79.6 µM [inhibitor, single point]"
Cc1ccc(NC=O)c(C)c1,Potency,[3],inactive
same,Potency,[4],"inconclusive: 39.9 µM [inhibitor, partial curve]"
CCCCCCCCC(=O)OCC(C)OC(=O)CCCCCCCC (stereo not drawn),Potency,[3],inactive
same,Potency,[5],"inconclusive: 83.4 µM [inhibitor, partial curve, poor fit]"
CC(C)(C)OC(=O)c1ccccc1C(=O)O,Potency,[1],inactive
same,Potency,[2],"inconclusive: 56.4 µM [inhibitor, partial curve, poor fit]"
CC(C)(C)CC(C)(C)N,Potency,[1],"inconclusive: 86.8 µM [inhibitor, single point]"
same,Potency,[2],inactive
c1ccsc1,Potency,[1],inactive
CO[Si](CCCOCC1CO1)(OC)OC (stereo not drawn),Potency,[1],"inconclusive: 28 µM [inhibitor, partial curve, poor fit]"
same,Potency,[2],"inconclusive: 79 µM [inhibitor, partial curve, poor fit]"
C=Cc1ccccn1,Potency,[1],"inconclusive: 3.2 µM [inhibitor, single point]"
CC(=O)Nc1ccc(CC(=O)O)cc1,Potency,[1],"inconclusive: 71 µM [inhibitor, single point]"
C=C(C)C(=O)OCCCCCCOC(=O)C(=C)C,Potency,[1],"inconclusive: 89.4 µM [inhibitor, single point]"
same,Potency,[2],active: 35.6 µM
CN(C)CCN1CCN(c2cccc(Cl)c2)C1=O,Potency,[3],"inconclusive: 15.5 µM [inhibitor, partial curve]"
same,Potency,[5],"inconclusive: 27.5 µM [inhibitor, partial curve]"
same,Potency,[4],inactive
CCCCCOC(=O)CCCCC,Potency,[1],inactive
CCCCN(CCCC)C(=O)N(CCCC)CCCC,Potency,[3],"inconclusive: 56.4 µM [inhibitor, partial curve, poor fit]"
same,Potency,[5],"inconclusive: 35.6 µM [inhibitor, partial curve]"
same,Potency,[6],"inconclusive: 24.5 µM [inhibitor, partial curve, poor fit]"
C=CCCCCCCCCCCC,"activity change, negative = inhibition",[1],inactive: 11.6% [at 10.5 µM]
same,"activity change, negative = inhibition",[2],inactive: -1.77% [at 10.5 µM]
O=C(OCCCCCCOC(=O)c1ccccc1)c1ccccc1,Potency,[1],inconclusive: 89.4 µM [inhibitor]
Cc1c(-c2cccnc2)c2ccccc2n1CCCCC(=O)O,Potency,[1],"inconclusive: 89.4 µM [inhibitor, single point]"
CNC(=O)c1cnn(-c2nc(N)c3ncn([C@@H]4O[C@H](CO)[C@@H](O)[C@H]4O)c3n2)c1,Potency,[3],"inconclusive: 38.9 µM [inhibitor, single point]"
same,Potency,[5],inactive
Nc1cccc(N)c1,Potency,[1],"inconclusive: 89.4 µM [inhibitor, single point]"
same,Potency,[2],"inconclusive: 70.1 µM [inhibitor, partial curve] and inconclusive: 35.6 µM [inhibitor, partial curve]"
CC(C)CCCCCOC(=O)CCS,Potency,[1],"inconclusive: 35.6 µM [inhibitor, partial curve]"
same,Potency,[2],"inconclusive: 39.9 µM [inhibitor, partial curve, poor fit]"
c1ccc2cc(Nc3ccc(Nc4ccc5ccccc5c4)cc3)ccc2c1,Potency,[1],"inconclusive: 7.14 µM [inhibitor, full curve] and inactive"
same,Potency,[2],"inconclusive: 7.14 µM [inhibitor, full curve]"
same,Potency,[5],"inconclusive: 8.99 µM [inhibitor, full curve] and inconclusive: 39.9 µM [inhibitor, partial curve]"
O=C(O)C(O)[C@H](O)[C@@H](O)[C@H](O)[C@H](O)CO (stereo partly drawn),Potency,[1],active: 40.4 µM
same,Potency,[2],"inconclusive: 18 µM [inhibitor, full curve, poor fit]"
CC(=O)CC/C=C(\C)CCC=C(C)C,Potency,[3],"inconclusive: 2.84 µM [inhibitor, single point]"
same,Potency,[4],active: 17.8 µM
Cc1ccc(C(=O)c2ccccc2)cc1,Potency,[3],"inconclusive: 39.9 µM [inhibitor, partial curve]"
same,Potency,[6],"inconclusive: 54.9 µM [inhibitor, single point]"
CC1=CCC2C(C1)C2(C)C (stereo not drawn),Potency,[1],active: 39.9 µM
same,Potency,[2],active: 63.3 µM
same,Potency,[5],"inconclusive: 71 µM [inhibitor, partial curve]"
NC(=O)c1ccncc1,Potency,[1],inactive
N[C@@H](CSSC[C@H](N)C(=O)O)C(=O)O,"activity change, negative = inhibition",[1],inactive: -14.3% [at 0.435 µM]
Cc1ccccc1Cl,Potency,[1],"inconclusive: 71.4 µM [inhibitor, partial curve, poor fit]"
same,Potency,[2],"inconclusive: 56.7 µM [inhibitor, partial curve, poor fit] and inconclusive: 89.4 µM [inhibitor, single point]"
same,Potency,[6],inactive
CCCCCCCCCCOC(=O)c1ccccc1C(=O)OCCCCCCCC,Potency,[2],"inconclusive: 79.6 µM [inhibitor, single point]"
